Our source for the self-cleavage values is the RNAGym collection of RNA variant scans (doi:10.1093/nar/gkz1192).

B1: CPEB3 Ribozyme (parent)
chain: UAACAGGGGGCCACAGCAGAAGCGUUCACGUCGCAGCCCCUGUCAGAUUCUGGUGAAUCUGCGAAUUCUGCUGUAUAUCUC

Read counts are not given, so values of variants with three or more changes are uncertain.

In the data set the parent is B1. Put plainly: self-cleavage, relative activity (ratio to wild type); higher = more cleavage; in vitro, sequencing. An outline of the steps:
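CPEB3 self-cleaving ribozyme mutant libraries were made by rounds of error-prone PCR, barcoded, and transcribed in vitro with T7 RNA polymerase for 5 hours at 37°C. Cleavage occurred during transcription and a 15 min DNase I step before EDTA stop. RNAs were reverse transcribed with template switching and Illumina-sequenced, with DNA sequencing mapping barcodes to variants. Relative activity is the variant's cleaved/total read fraction divided by wild type's (minimum 5 reads), averaged across three batches.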
UAACAGGGGGCCACAGCAGAAGCGUUCACGUCGCUGCCCAUGUCAGAUUCUGGUGAAUCUGCGAUUUCUGCUGAAUAUCUC [A35U C40A A65U U74A]: the self-cleavage amounted to 0.32.
As to UAACAGGGGGCCACAGCAGAAGCGUUCACGUCGCUGCCCCAGUCAGAUUCUGGUAAAUCUGCGAAUUCUGCUGUAUACCUC [A35U U41A G55A U78C], the self-cleavage amounted to 0.14.
As for UAACAGGGGGCCACAGCAGAAGCGUUCACGUCGCUGCCCUUGUCGGAUUCUGGUGAAUCUGCGAAUUCUGCUGUAUAUCUC [A35U C40U A45G], the figure is 0.33; as for UAACAGGGGGCCACAGCAGAAGCGUUCACGUCGCUGCCCCAGUCCGAUUCUGGUGAAUCUGCGAAUUCUGGUGUAUAUCUC [A35U U41A A45C C71G], 0.07.
Turning to UAACAGGGGGCCACAGCAGAAGCGUUCACGUCGCUGCCCCUGUCAAGUCCUGGUGAAUCUGCGAAUCCUGCCGUAUAUCUC [A35U G46A A47G U49C U67C U72C], the self-cleavage worked out at 0.07.
As for UAACAGGGGGCCACAGCAGAAGCGUUCACGUCGCUGCCUCUGUCAGAUUCUGGUGGAUCUGCGAAUACUGCUGUAUAUCUC [A35U C39U A56G U67A], the figure is 0.09; as for UAACAGGGGGCCACAGCAGAAGCGUUCACGUCGCUGCCCCCGUCAGAUUCAGGUGAACCUGCGAAUUCUGCUGUAUAUCUC [A35U U41C U51A U58C], 0.2; as for UAACAGGGGGCCACAGCAGAAGCGUUCACGUCGCUGCCCCAGUCAGGUUCUGGUGAAUCUGCGAAUUCUGGUGUAUAUCUC [A35U U41A A47G C71G], 0.1.
As for UAACAGGGGGCCACAGCAGAAGCGUUCACGUCGCUGCCCCUGUCAGAUUCUUGUGAAUCUGCGAAUUCUGCUGUAUACCUC [A35U G52U U78C], the figure is 0.45; as for UAACAGGGGGCCACAGCAGAAGCGUUCACGUCGCUGCCCCCGUCAGUUUCUGGUGAGUCUGCGAAUUCUGCUGUAUAACUC [A35U U41C A47U A57G U78A], 0.09; as for UAACAGGGGGCCACAGCAGAAGCGUUCACGUCGCUGCCCCCGUCAGAUUCUGGUGAAUCUGCGAGUUCUGCUGUAUAUCUC [A35U U41C A65G], 0.28.
As for UAACAGGGGGCCACAGCAGAAGCGUUCACGUCGCUGCCCCCGUCAGAUUCUGGCGAAUCUGCGAAUUCUGCGGUAUAUCUC [A35U U41C U54C U72G], the figure is 0.7.
Turning to UAACAGGGGGCCACAGCAGAAGCGUUCACGUCGCUUCCCCUGUCAGAUUCGGGUGAAUCUGCGAAUUCUGCUGUAUAUCUC [A35U G36U U51G], the self-cleavage amounted to 0.09.
As for UAACAGGGGGCCACAGCAGAAGCGUUCACGUCGCUGCCCCUGUCAGAUUCUAGUGAAUCUGCGAAUACUGCUGUAUAUCUC [A35U G52A U67A], the figure is 0.09; as for UAACAGGGGGCCACAGCAGAAGCGUUCACGUCGCUGCCCCUGUCAGAUUCUGGUGAAUCUGUGUAUUCUGCUGUAUACCUC [A35U C62U A64U U78C], 0.11; as for UAACAGGGGGCCACAGCAGAAGCGUUCACGUCGCUGCCCCCGUCAGAUUCUGGUGAAUCAGCGAAUUCUGCUGUAUAUCUC [A35U U41C U60A], 0.21.
With UAACAGGGGGCCACAGCAGAAGCGUUCACGUCGCUGCCCCAGUCAGAUUCUGGUGAAUCUGCGAAUUCUGCUGCAUAUCUC [A35U U41A U74C] the figure was 0.17; with UAACAGGGGGCCACAGCAGAAGCGUUCACGUCGCUGCCCCCGUCAGAUUCUGGCGAAUCCGCGAAUUCUGCUGUAUAUCUC [A35U U41C U54C U60C], 0.14; with UAACAGGGGGCCACAGCAGAAGCGUUCACGUCGCUGCCCCAGACAGAUCCUGGUGAAUCUGCGUAUUCUGCUGUAUAUCUC [A35U U41A U43A U49C A64U], 0.08.
With UAACAGGGGGCCACAGCAGAAGCGUUCACGUCGCUGCCCCAGUCAGAUUCUGGUGAAUCAGCGAAUUCUGCAGUAUACCUC [A35U U41A U60A U72A U78C] the figure was 0.14; with UAACAGGGGGCCACAGCAGAAGCGUUCACGUCGCUGCCCCCGUCAGAUUCUGGUGGAUCUGCGAAUUCUGCUGUAUAUCUC [A35U U41C A56G], 0.46.
UAACAGGGGGCCACAGCAGAAGCGUUCACGUCGCUGCCCCUGUCAGAUUCUGGUAAACCUGCGAAUUCUGCUGUAUAUCUC [A35U G55A U58C]: the self-cleavage amounted to 0.14.
As for UAACAGGGGGCCACAGCAGAAGCGUUCACGUCGCUGCCCCAGUCAGGUUCCGGUGAAUCUACGAAUUCUGCCGUAUACCUC [A35U U41A A47G U51C G61A U72C U78C], the figure is 0.07; as for UAACAGGGGGCCACAGCAGAAGCGUUCACGUCGCUGCCCCAGUCAGAUUCUGGUGAAUCUGCGAAUUCUGCUGUACAUCUC [A35U U41A U76C], 0.53.
As for UAACAGGGGGCCACAGCAGAAGCGUUCACGUCGCUGCCCCAGUCAGGUCCUGGUGAAUCUACGAAUUCUGCCGUAUAUCUC [A35U U41A A47G U49C G61A U72C], the figure is 0.08; as for UAACAGGGGGCCACAGCAGAAGCGUUCACGUCGCUGCCCCAGUCAGAUUCAGGUGAAUCUGCGAAUUCUGCUGUAUAUCUC [A35U U41A U51A], 0.28; as for UAACAGGGGGCCACAGCAGAAGCGUUCACGUCGCUGCCCCUGUCAGAUUCUGGUGAAUCUGAGAAUUCUGCUGCAUAUCUC [A35U C62A U74C], 0.2.
With UAACAGGGGGCCACAGCAGAAGCGUUCACGUCGCUGCCCCAGUCAGAUUCUGGUGAAUAUGCGAAUUCUGCUGUAUUUCUC [A35U U41A C59A A77U] the figure was 0.22.
For UAACAGGGGGCCACAGCAGAAGCGUUCACGUCGCUGCCCCCGUCAGAUUCUGGUGAAUCUGCGAAUUCAGCUGUAUAUCUC [A35U U41C U69A], the self-cleavage was 0.2.
As for UAACAGGGGGCCACAGCAGAAGCGUUCACGUCGCUGCCCCUGUCAGAUUAUGGUGAACCUGCGAAUUCUGCCGUAUACCUC [A35U C50A U58C U72C U78C], the figure is 0.09; as for UAACAGGGGGCCACAGCAGAAGCGUUCACGUCGCUGCCCCUAUCAGAUACUGGUGAAUCAGCGAAUUCUGCUGUAUAUCUC [A35U G42A U49A U60A], 0.43; as for UAACAGGGGGCCACAGCAGAAGCGUUCACGUCGCUGCCCCUGUCAGAUUCUUGUGAAUCAGCGAAUUCUGCUGUAUAUCUC [A35U G52U U60A], 0.16.
With UAACAGGGGGCCACAGCAGAAGCGUUCACGUCGCUGCCCCCGUCAGAUUCUGGUGAAUCUGGGAAUUCUGCUGUAUAUCUC [A35U U41C C62G] the figure was 0.15; with UAACAGGGGGCCACAGCAGAAGCGUUCACGUCGCUGCCCUUGUCAGAUUCUGGUGGAUCUGCGAAUUCAGCUGUAUACCUC [A35U C40U A56G U69A U78C], 0.1.
